Hit rate of the full screen: of about 39,000 compounds, about 220 (0.56%) showed activity. The list shows a part of the results.
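Note: static incubation at 37 °C against the wild-type strain, values averaged over two biological replicates.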

For the assay, the system named is Escherichia coli K-12 BW25113. The experiment in a line: relative growth (OD600 normalised to plate interquartile mean) (fraction); higher = less growth inhibition, active = 0.2 or less. Conditions: 50 µM; LB; incubation time: overnight (16-24 h).
Regarding `C[C@@H]1CCCCO[C@@H](CN(C)Cc2ccc(C(=O)O)cc2)[C@@H](C)CN([C@@H](C)CO)C(=O)c2cc(NS(=O)(=O)c3ccc(F)cc3)ccc2O1`, the relative growth is inactive: 1.02.
The result for `CS(=O)(=O)Nc1ccc2c(c1)[C@H]1C[C@H](CC(=O)NCc3ccc(-c4ccccc4)cc3)O[C@H](CO)[C@H]1O2` reads inactive: 1; that for `C[C@@H]1CN([C@@H](C)CO)C(=O)c2cccc(NC(=O)CCCCCC(=O)Nc3ccccc3N)c2O[C@@H]1CN(C)Cc1ccc(Cl)c(Cl)c1`, inactive: 1.04; that for `O=C(C[C@@H]1CC[C@H]2[C@@H](COC[C@H](O)CN2S(=O)(=O)c2ccc(F)cc2)O1)N[C@H]1CCN(Cc2ccccc2)C1`, inactive: 1.01.
Consider `CC(CCC(=O)O)C1CCC2C3C(O)CC4CC(O)CCC4(C)C3CC(O)C12C` (stereo not drawn), for which the relative growth is inactive: 1.08.
For the molecule `C[C@H](CO)N1C[C@H](C)[C@@H](CN(C)Cc2ccccc2)Oc2ccc(NS(=O)(=O)c3cn(C)cn3)cc2C1=O`, the relative growth was inactive: 0.929.
Regarding `Cc1noc(C)c1NC(=O)Nc1ccc2c(c1)C(=O)N([C@@H](C)CO)C[C@@H](C)[C@@H](CN(C)C(=O)Nc1ccc3c(c1)OCO3)OCCCC[C@@H](C)O2`, the relative growth was inactive: 0.984.
The result for `Cc1noc(C)c1NC(=O)N(C)C[C@H]1Oc2ccc(NC(=O)CCN3CCOCC3)cc2CC(=O)N([C@@H](C)CO)C[C@@H]1C` reads inactive: 0.996.
The value for `COc1ccc(NC(=O)Nc2ccc3c(c2)C(=O)N([C@@H](C)CO)C[C@@H](C)[C@@H](CN(C)Cc2ccc(C(=O)O)cc2)OCCCC[C@@H](C)O3)cc1` was inactive: 1.01; that for `C[C@H]1CN([C@@H](C)CO)C(=O)Cc2cc(NC(=O)Nc3ccc(C(F)(F)F)cc3)ccc2O[C@@H]1CN(C)S(=O)(=O)c1ccc(Cl)cc1` was inactive: 1.01; that for `C[C@H]1CN([C@@H](C)CO)C(=O)c2cc(NC(=O)CCCN(C)C)ccc2O[C@H]1CN(C)C(=O)NC1CCCCC1` was inactive: 0.987.
The value for `C[C@H]1CN([C@@H](C)CO)C(=O)c2cccc(NS(=O)(=O)c3ccc(Cl)cc3)c2O[C@H]1CN(C)Cc1ccc(-c2ccccc2)cc1` was inactive: 1.03; that for `CC1OC(OC2C(Oc3cc(O)c4c(=O)cc(-c5ccc(O)cc5)oc4c3)OC(CO)C(O)C2O)C(O)C(O)C1O` (stereo not drawn) was inactive: 1.08; that for `Cc1noc(C)c1S(=O)(=O)Nc1ccc2c(c1)CC(=O)N([C@@H](C)CO)C[C@@H](C)[C@@H](CN(C)C(=O)Nc1ccccc1)O2` was inactive: 0.986.
Consider `O=C(C[C@H]1CC[C@H](NC(=O)Nc2ccc3c(c2)OCO3)[C@H](CO)O1)NCCCN1CCOCC1`, for which the relative growth was inactive: 0.981.
The result for `C[C@H]1CN([C@@H](C)CO)C(=O)c2cc(/C=C/c3ccccc3)cnc2O[C@@H]1CN(C)C(=O)C1CCOCC1` reads inactive: 0.98; that for `CO[C@@H]1CN(C)C(=O)c2cc(NS(=O)(=O)CC(F)(F)F)ccc2OC[C@@H](C)N(C(=O)NC(C)C)C[C@@H]1C`, inactive: 0.991; that for `COC(=O)C[C@H]1CC[C@@H]2[C@@H](COc3ccc(NS(=O)(=O)c4ccccc4Cl)cc3C(=O)N2C)O1`, inactive: 1.06.
The value for `C[C@@H]1CN([C@H](C)CO)C(=O)c2cc(C#C[C@@H](C)O)cnc2O[C@H]1CN(C)C(=O)CN1CCOCC1` was inactive: 0.996.
The value for `COc1cccc(S(=O)(=O)N[C@H]2C=C[C@@H](CC(=O)NC3CCC3)O[C@@H]2CO)c1` was inactive: 1.
In the case of `C[C@@H]1CCCCO[C@@H](CN(C)C(=O)c2ccccc2)[C@@H](C)CN([C@H](C)CO)C(=O)c2cc(NS(=O)(=O)c3cccs3)ccc2O1`, the relative growth was inactive: 1.01.
The value for `O=C(C[C@H]1C[C@@H]2c3cc(NC(=O)Nc4ccc(C(F)(F)F)cc4)ccc3O[C@@H]2[C@@H](CO)O1)NCCc1ccccc1` was inactive: 0.963; that for `Cn1c(Cl)cnc1CO` was inactive: 0.983.
The result for `C[C@@H]1CN([C@@H](C)CO)S(=O)(=O)c2ccc(C#CCN(C)C)cc2O[C@H]1CN(C)Cc1ccccc1F` reads inactive: 0.99; that for `COc1ccccc1S(=O)(=O)N[C@H]1C=C[C@H](CC(=O)N2CCN(C)CC2)O[C@@H]1CO`, inactive: 0.963; that for `C[C@H](CO)N1C[C@H](C)[C@H](CN(C)S(=O)(=O)c2ccc(Cl)cc2)Oc2ccc(NC(=O)c3ccncc3)cc2CC1=O`, inactive: 1.02.
The result for `O=C(C[C@@H]1C[C@H]2c3cc(NC(=O)C4CCOCC4)ccc3O[C@H]2[C@H](CO)O1)NCCN1CCCCC1` reads inactive: 0.993; that for `COc1ccc2c3c([nH]c2c1)[C@@H](CO)N(C[C@]13CCN(CC1)Cc1cc(ccc1F)F)C(=O)Nc1ccc(cc1)F`, inactive: 1.01; that for `C[C@@H]1CCCCO[C@H](CN(C)Cc2ccncc2)[C@@H](C)CN([C@H](C)CO)C(=O)c2cc(NC(=O)C3CCCCC3)ccc2O1`, inactive: 0.971.
As to `C[C@H]1CN([C@@H](C)CO)C(=O)c2cccc(NC(=O)CCCCCC(=O)Nc3ccccc3N)c2O[C@@H]1CN(C)Cc1ccccc1`, the relative growth is inactive: 1.01.
`C(=C\c1ccncc1)/c1ccncc1`: the relative growth was inactive: 0.994.
Regarding `C=CCOC(=O)[C@H]1[C@@H]2C(=O)O[C@@H](c3ccccc3)[C@@H](c3ccccc3)N2[C@@H](c2ccc(OCCOC(=O)[C@H]3C[C@H]4C(=O)NCC(=O)N4[C@H]3c3cccc(OCCO)c3)cc2)[C@]12C(=O)Nc1ccc(I)cc12`, the relative growth is inactive: 1.05.
Regarding `COc1ccc(NC(=O)Nc2ccc3c(c2)C(=O)N([C@@H](C)CO)C[C@@H](C)[C@H](CN(C)S(=O)(=O)c2ccc(OC)cc2)OCCCC[C@H](C)O3)cc1`, the relative growth was inactive: 1.04.
As to `C[C@@H]1CCCCO[C@H](CN(C)CC2CC2)[C@@H](C)CN([C@H](C)CO)C(=O)c2cc(NC(=O)Nc3ccc(F)cc3)ccc2O1`, the relative growth was inactive: 0.977.
The result for `NCc1cccc(COc2ccccc2)c1` reads inactive: 0.985; that for `Cc1ccc(S(=O)(=O)Nc2ccc3c(c2)C(=O)N([C@H](C)CO)C[C@@H](C)[C@@H](CN(C)S(C)(=O)=O)OCCCC[C@H](C)O3)cc1`, inactive: 0.997.
The value for `C[C@H](CO)N1C[C@H](C)[C@@H](CN(C)Cc2ccc3c(c2)OCO3)Oc2ccc(NC(=O)c3ccncc3)cc2CC1=O` was inactive: 1.01.
The value for `C[C@@H]1CN([C@@H](C)CO)C(=O)Cc2cc(NS(=O)(=O)c3cn(C)cn3)ccc2O[C@@H]1CN(C)Cc1ccc(C(=O)Nc2ccccc2N)cc1` was inactive: 1.
As to `CN1C(=O)c2cc(NC(=O)c3ccc(F)cc3)ccc2OC[C@@H]2O[C@H](CC(=O)N3CCOCC3)CC[C@@H]21`, the relative growth was inactive: 0.899.
In the case of `CC(C)NC(=O)Nc1cccc2c1O[C@H](CN(C)S(=O)(=O)c1cccs1)[C@@H](C)CN([C@H](C)CO)C2=O`, the relative growth is inactive: 1.03.
On to `C[C@@H]1CN([C@H](C)CO)C(=O)c2cc(NC(=O)Nc3ccc(C(F)(F)F)cc3)ccc2O[C@@H]1CN(C)C(=O)NC1CCCCC1`, for which the relative growth was inactive: 0.987.
The value for `COc1ccc(CN(CCN(C)C)c2ncccn2)cc1.Cl` was inactive: 1.08.
On to `CC(C)C#Cc1ccc2c(c1)O[C@@H](CN(C)C(=O)c1cnccn1)[C@H](C)CN([C@H](C)CO)S2(=O)=O`, for which the relative growth is inactive: 0.977.
The result for `CC=Cc1ccc2n(c1=O)C[C@H]1[C@H](CO)[C@@H](C(=O)NCCc3cn(C)cn3)N(C(=O)CC)[C@@H]21` reads inactive: 1.03; that for `Cc1noc(C)c1S(=O)(=O)Nc1ccc2c(c1)C(=O)N([C@@H](C)CO)C[C@H](C)[C@H](CN(C)Cc1ccccc1)OCCCC[C@H](C)O2`, inactive: 0.994; that for `COc1ccc(CN(C)C[C@H]2OCCCC[C@@H](C)Oc3ccc(NC(=O)NC4CCCCC4)cc3C(=O)N([C@H](C)CO)C[C@@H]2C)cc1`, inactive: 0.963.
The value for `COc1ccc(NC(=O)Nc2cccc3c2O[C@H](CN(C)CC2CCCCC2)[C@@H](C)CN([C@H](C)CO)C3=O)cc1` was inactive: 0.96; that for `C[C@H](CO)N1C[C@H](C)[C@H](CN(C)S(=O)(=O)c2ccccc2F)Oc2ncc(C#Cc3ccncc3)cc2C1=O` was inactive: 0.99.
With `C[C@@H]1CN([C@@H](C)CO)C(=O)Cc2cc(NC(=O)Cn3cnnn3)ccc2O[C@H]1CN(C)C(=O)Nc1ccc(C(F)(F)F)cc1`, the relative growth is inactive: 0.993.
The value for `CCC1OC(=O)C(C)C(OC2CC(C)(OC)C(O)C(C)O2)C(C)C(OC2OC(C)CC(N(C)C)C2O)C(C)(O)CC(C)C(=O)C(C)C(O)C1(C)O` (stereo not drawn) was inactive: 0.408.
The result for `C[C@H]1CN([C@@H](C)CO)C(=O)c2cc(NS(=O)(=O)c3cn(C)cn3)ccc2O[C@H]1CN(C)S(=O)(=O)c1ccccc1` reads inactive: 0.994; that for `CC1(C)O[C@@H]2[C@@H](CO[C@@]3(COS(N)(=O)=O)OC(C)(C)O[C@@H]23)O1`, inactive: 0.998.
With `O=C(C[C@H]1CC[C@H]2[C@@H](COC[C@H](O)CN2C(=O)C2CC2)O1)NCc1ccncc1`, the relative growth is inactive: 0.991.
The result for `COc1cc2c(cc1OC)CN(C(=O)[C@H]1[C@@H]3C(=O)O[C@@H](c4ccccc4)[C@@H](c4ccccc4)N3[C@@H](c3ccc(O)cc3)[C@]13C(=O)Nc1ccccc13)CC2` reads inactive: 0.996; that for `O=C(C[C@@H]1C[C@H]2c3cc(NC(=O)C4CCOCC4)ccc3O[C@H]2[C@@H](CO)O1)NCc1cc(F)ccc1F`, inactive: 1.01.
Regarding `COc1cccc(S(=O)(=O)Nc2ccc3c(c2)[C@H]2C[C@H](CC(=O)N4CCCCC4)O[C@H](CO)[C@H]2O3)c1`, the relative growth is inactive: 0.996.
`C[C@@H]1CCCCO[C@H](CN(C)Cc2ccc(C(F)(F)F)cc2)[C@@H](C)CN([C@H](C)CO)C(=O)c2cc(NC(=O)Nc3ccc(F)cc3)ccc2O1`: the relative growth is inactive: 0.988.
The value for `Cn1c(=O)c2[nH]c(NCCN3CCOCC3)nc2n(C)c1=O` was inactive: 1.03.
